The full ranking holds about 110,000 compounds; the median of “z-score” is about -0.1, and the highest 2% start at about 2. This is one part of the list. Activity calls are given as the source filed them.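 How the source made its calls: active means z-score in the third read window above 3 or below -3; inactive means the rest.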 Non-standard residues stand in square brackets, D forms with d. Residues, ends and D or L forms follow the SMILES beside them. ξ: configuration not given here. *: point of attachment. Cbz = O=C(OCc1ccccc1)*; ξV = CC(C)C(N)C(=O)O; OtBu = CC(C)(C)O*

The target in this assay is Metabotropic glutamate receptor 8 (Rattus norvegicus) (UniProt P70579). The assay is described as follows: mGluR8 Gi/Go-coupled signaling modulation – cell-based, rat, thallium flux, HTS, primary screen (AID 488969). As to conditions: HEK293 rat mGluR8, GIRK (G protein-gated inwardly rectifying potassium channel) thallium flux, FluoZin2; at 10 µM; stronger effect = higher value; submaximal glutamate (EC20) added with thallium.
UniProt P70579, sequence (P70579 whole entry, looked up): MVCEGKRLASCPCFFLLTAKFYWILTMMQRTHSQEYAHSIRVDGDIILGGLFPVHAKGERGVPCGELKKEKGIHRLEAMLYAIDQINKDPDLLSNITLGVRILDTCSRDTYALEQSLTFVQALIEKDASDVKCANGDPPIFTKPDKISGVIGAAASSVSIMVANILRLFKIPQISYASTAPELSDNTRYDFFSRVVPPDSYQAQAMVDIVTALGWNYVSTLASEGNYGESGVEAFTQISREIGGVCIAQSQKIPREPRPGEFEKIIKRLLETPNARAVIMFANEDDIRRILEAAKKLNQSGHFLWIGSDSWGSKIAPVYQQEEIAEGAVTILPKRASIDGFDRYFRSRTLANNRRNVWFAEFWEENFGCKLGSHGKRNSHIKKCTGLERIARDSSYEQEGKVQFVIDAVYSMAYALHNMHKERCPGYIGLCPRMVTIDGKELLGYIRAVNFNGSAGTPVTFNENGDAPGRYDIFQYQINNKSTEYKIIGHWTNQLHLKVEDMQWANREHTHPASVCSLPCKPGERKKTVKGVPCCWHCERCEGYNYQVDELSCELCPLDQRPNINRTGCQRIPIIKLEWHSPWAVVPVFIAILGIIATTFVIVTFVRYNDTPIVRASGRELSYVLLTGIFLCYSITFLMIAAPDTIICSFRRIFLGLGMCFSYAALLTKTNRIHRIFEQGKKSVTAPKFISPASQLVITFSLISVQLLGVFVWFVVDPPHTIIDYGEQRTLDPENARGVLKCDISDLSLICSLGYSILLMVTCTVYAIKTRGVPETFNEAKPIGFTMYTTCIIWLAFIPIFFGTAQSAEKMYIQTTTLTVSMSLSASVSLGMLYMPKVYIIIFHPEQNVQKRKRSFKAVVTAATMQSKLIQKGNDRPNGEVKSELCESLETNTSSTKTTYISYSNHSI
`O=C(NNc1ccc([N+](=O)[O-])cc1)C12CC3CC(CC(C3)C1)C2`: the z-score is -0.251.
Then `Cc1ccccc1NC(=O)/C(=C\c1cccs1)NC(=O)c1ccccc1`, with -0.288; and `O=C(c1cccs1)N1CCN(S(=O)(=O)N2CCCCC2)CC1`, with 0.729; and `CC(C)OC(=O)CSc1nnc(-c2ccccn2)n1-c1ccccc1`, with 0.387.
As for `Cc1ccc(C(=O)Nn2cnc3scc(-c4cccs4)c3c2=O)c(O)c1`, the figure is -0.0878.
Then `COc1ccc(C(=O)OCCCN(C)C)cc1OC`, with -0.136; and `CCCCNC(=O)COc1ccccc1C(=O)c1cc(C#N)c(=O)n(CCOC)c1`, with -0.344.
In turn, `CC(NC(=O)C1CCC(=O)N1Cc1ccc(F)cc1)c1ccc2c(c1)OCCO2` (stereo not given) had a z-score of -0.129.
Then `C=CCn1c(SCc2ccc(Cl)cc2)nc2cc(C(=O)N3CCC(C(N)=O)CC3)ccc2c1=O`, with -0.178; and `C/C(=C\C(=O)c1ccc(C)o1)Nc1ccc(C(=O)O)cc1C`, with 0.648.
As for `Cc1noc(C(=O)Nc2sc3c(c2C#N)CCC3)c1Cl`, the figure is -1.31.
Then `CCC(OC(=O)c1cc2sccc2n1C)C(=O)NCC1CCCO1` (stereo not given), with -0.0491.
`O=C(COC(=O)c1ccc(Cl)c([N+](=O)[O-])c1)Nc1ccccc1OC(F)F` showed a z-score of -0.229.
As for `COc1ccccc1NC(=O)c1ccc(-c2ccccc2F)o1`, the figure is 0.0911; as for `COc1ccc(N2CCN(C(=O)c3ccc(C)cc3)CC2)c([N+](=O)[O-])c1`, -0.327.
As to `COc1ccc(C=O)cc1COc1ccc(C)cc1[N+](=O)[O-]`, the z-score was -0.197.
Then `C=CCOc1c(Cl)cc(CNc2ccc(C)c(Cl)c2)cc1OC`, with -0.139; and `COc1ccc(-c2cn3cc(C)ccc3n2)cc1OC`, with 0.227; and `N#Cc1c2n(c3c(-c4ccccc4)ncnc13)CCC2`, with -0.173.
Compound `CSc1nsc(SC)c1NC(=O)OCC1CCCO1` (stereo not given) gave a z-score of -0.0464.
As for `CC(C)(C)C(=O)Nc1ccccc1C(=O)N1CCCC1`, the z-score was -0.35.
As for `O=C(CC(Sc1ccccc1)c1cccs1)c1ccco1` (stereo not given), the z-score amounted to 0.38.
In turn, `Nc1cc2c([N+](=O)[O-])cccc2o1` yielded a z-score of 0.254.
`CN(c1ccc(C(=O)Nc2nccs2)cc1)S(=O)(=O)c1ccccc1` gave a z-score of -0.945.
Then `CC(C)C(NC(=O)OCc1ccccc1)C(=O)NCC(=O)OC(C)(C)C` (stereo not given) (Cbz-[ξV]-Gly-OtBu), with 0.0191.
Then `CC(C)(C)n1nnnc1C(c1ccc(C(F)(F)F)cc1)N(Cc1ccccc1)Cc1ccco1` (stereo not given), with 0.067; and `Cc1ccc2[nH]c3c(c2c1)CN(C(=O)CN1CCN(Cc2ccc4c(c2)OCO4)CC1)CC3`, with -0.595.
In turn, `CC1CCCCC1NC(=O)CSc1nnc(N)s1` (stereo not given) yielded a z-score of 0.0767.
Then `O=C(COc1ccccc1)NCCSCc1ccco1`, with -0.155.
Then `Cc1ccc(S(=O)(=O)NCCNC(=O)c2cc(OCC(F)(F)F)ccc2OCC(F)(F)F)cc1`, with -0.185; and `CC1CN(C(=O)CCc2ccccc2)C(C)CN1C(=O)CCc1ccccc1` (stereo not given), with -0.466; and `C/C(=N\NC(=O)c1ccccc1O)c1ccc(Br)s1`, with 2.99.
As for `Cc1ccc2c(c1)NC(=O)C(CC(=O)NCCCN1CCCCC1)O2` (stereo not given), the figure is -0.0168; as for `O=C(Nc1ccc2oc(-c3ccccc3)nc2c1)c1cccs1`, 0.244.
`O=C(NCCOc1cccc(Oc2ccccc2)c1)c1cc(-n2cnnc2)ccc1Cl` displayed a z-score of -0.165.
Regarding `CS(=O)(=O)c1ccc(Sc2nc3ccccc3[nH]2)c([N+](=O)[O-])c1`, the z-score was -0.102.
As for `Cc1ccccc1S(=O)(=O)c1c(C)cc(C)n(CC(C)C)c1=O`, the figure is 0.00175; as for `O=C(c1ccccc1)c1cc(-c2ccccn2)c(N2CCOCC2)s1`, -0.371.
Consider `COc1ccc(NCC(O)Cn2cnc3c2c(=O)n(C)c(=O)n3C)cc1` (stereo not given), for which the z-score was -0.122.
For `O=C(O)c1cc(-c2ccccc2)n[nH]1`, the z-score is 0.685.
As for `CCC(=O)Nc1nc2c(OC)ccc(OC)c2s1`, the figure is 0.14; as for `CSc1nsc(SC)c1C(=O)Nc1ccc(C)cc1`, -0.0877; as for `CN(C)CCCOC(=O)c1cc2ccccc2o1`, 0.619.
As for `Nc1cc(C(=O)c2cccs2)ccc1Cl`, the figure is 0.11; as for `COc1ccccc1/C=N/n1c(C)nnc1-n1nc(C)cc1C`, -0.476; as for `Cc1ccc2[nH]c(C(=O)O)c(NC(=O)c3ccccc3[N+](=O)[O-])c2c1`, 0.136.
`COc1cc2cnc(Cl)nc2cc1OC` had a z-score of -0.182.
As for `CCCC(C)NNC(=O)c1cc2ccccc2[nH]1` (stereo not given), the figure is 0.0595.
As for `COCc1cc(=O)n2c([nH]c3ccccc32)c1C#N`, the z-score amounted to 0.0741.
`COC(=O)c1ccc(N2CCN(C)CC2)c(NC(=O)c2cc3ccccc3o2)c1` showed a z-score of -0.491.
As for `CCOC(=O)C1CCCN(S(=O)(=O)c2ccc(F)c(C(=O)Nc3ccc(F)c(F)c3)c2)C1` (stereo not given), the figure is -0.23.
Then `CCCCOC(=O)c1ccc(NC(c2ccc(C)cc2)P(=O)(OC)OC)cc1` (stereo not given), with -0.0897; and `Cc1cccc(C(=O)O/N=C2\CCS(=O)(=O)c3sccc32)c1`, with -0.127; and `CCc1ccc(CN(C)CCc2ccccn2)cc1`, with -0.314.
As to `Cc1cc(N2CCN(c3ccccc3)CC2)n2cc(-c3ccccc3)nc2n1`, the z-score is -0.235.
As for `Cc1cc(C)c2nc(SC(C)C(=O)NCC(=O)Nc3ccc(F)c(F)c3F)cc(C)c2c1` (stereo not given), the figure is active: 7.48; as for `COCCn1nnnc1SCC(=O)N1CCCCC1`, -0.27; as for `COCCNC(=O)c1cnn2c1NC(c1ccco1)CC2C(F)(F)F` (stereo not given), 0.0267.
Then `Cc1cccc(SCc2noc(C(=O)NC(C)C)c2C(=O)O)c1`, with -0.0231; and `Cc1ccccc1CN1CCN(S(=O)(=O)c2ccc(F)cc2)CC1`, with -0.61; and `CCc1ccc(-c2nc(CSCC(=O)N3CCN(c4ncccn4)CC3)c(C)o2)cc1`, with -0.64.
The compound `NS(=O)(=O)c1ccc(NC(=S)NC(=O)c2ccco2)cc1` showed a z-score of -0.0865.
Then `CCCc1nnc(SCC(=O)N2CCCCC2C)n1CC` (stereo not given), with 0.0594; and `CCOC(=O)c1cc(C)sc1NC(=O)CCC(=O)O`, with -0.17; and `Cc1sc(Nc2ccc([N+](=O)[O-])cc2)nc1-c1c(C)n(C)n(-c2ccccc2)c1=O`, with -0.51.
Take `O=C(OCn1nnc2ccccc2c1=O)c1ccc(S(=O)(=O)N2CCOCC2)cc1`: the z-score is -0.396.
Then `COC(=O)C1=C(C)Nc2c(c(=O)n(C)c(=O)n2C)C1c1cccnc1` (stereo not given), with -1.75; and `Cc1[nH]nc2c1C(c1ccccn1)N(c1ccc(Br)cc1)C2=O` (stereo not given), with 0.293.
Regarding `CCOc1ccc(-c2nc(-c3ccc(OC)cc3)no2)cc1OCC`, the z-score was 2.87.
Regarding `CCc1ccc(CNC(=O)C2CCCN(c3nc4ccccc4o3)C2)cc1` (stereo not given), the z-score is -0.258.
`COc1ccc(-c2cc(C(=O)Nc3nc4ccccc4s3)c3ccccc3n2)cc1OC` gave a z-score of -0.0904.
As for `COc1ccccc1NS(=O)(=O)c1cc(NC(=O)CNC(=O)c2cc(C)cc(C)c2)ccc1C`, the figure is -0.0673; as for `CC(=O)c1cc2c(cc1N/C(=N/S(=O)(=O)c1ccc(C)cc1)c1ccccc1)OCO2`, -0.143.
As for `C=C(C)Cn1c(SCC(=O)O)nc2c1c(=O)[nH]c(=O)n2C`, the figure is -0.35.
Then `CCOc1ccc(/C(O)=C2\C(=O)C(=O)N(CCN(C)C)C2c2cccc(OC)c2OC)cc1Cl` (stereo not given), with -0.303.
`c1cn(CCCNc2ncnc3nc[nH]c23)cn1` had a z-score of -0.153.
Turning to `CCN1CCN(C(=S)c2ccc(Cl)c(Cl)c2)CC1`, the z-score is -0.0912.
Compound `CC(OC(=O)c1ccc2c(=O)n3c(nc2c1)CCCCC3)C(=O)Nc1ccc(F)cc1Cl` (stereo not given) gave a z-score of -0.267.
As for `CCOC(=O)c1ccc(N/C=C/C(=O)c2ccc(OC)c(OC)c2)cc1`, the z-score was -0.0592.
As for `O=C(CSc1nc2ccccc2n1CCc1ccccc1)N1CCOCC1`, the figure is 2.47.
As for `CC1(C(=O)Nc2nnc(SCc3ccccc3)s2)Cc2ccccc2C(=O)O1` (stereo not given), the figure is 0.224; as for `O=C(Nc1ccc(Br)cc1F)C1CCN(c2nnc(-n3cccc3)s2)CC1`, -0.247.
For `Cc1ccc2c(c1)cc(CN(Cc1ccco1)C(=O)COc1ccccc1)c1nnnn12`, the z-score is -0.261.
As for `CCOC(=O)N1CCN(S(=O)(=O)c2cc(C)c(C)cc2C)CC1`, the figure is 0.457; as for `COc1cc(C2C(C#N)=C(N)N(c3cccnc3)C3=C2C(=O)CCC3)ccc1O` (stereo not given), -0.192; as for `CCN1CCN(c2cc(N3CCc4ccccc4C3)c(F)cc2[N+](=O)[O-])CC1`, -0.033.
Consider `O=C(CCC(=O)c1cccs1)NCc1ccccc1`, for which the z-score was -0.0705.
Then `CC(C)c1cc(C(=O)N/N=C/c2cccnc2)n[nH]1`, with -0.116; and `Cc1cccc(C)c1NS(=O)(=O)c1ccc(NC(=O)c2ccc(Cl)c([N+](=O)[O-])c2)cc1`, with 0.000906.
Regarding `COc1ccccc1NS(=O)(=O)c1cccc(C(=O)N/N=C(\C)c2ccc(-n3ccnc3)cc2)c1`, the z-score is -0.46.
Turning to `COc1ccc(CNCCNC(=O)c2nonc2N)cc1OC`, the z-score was found to be 0.172.
As for `O=C(CSc1nc(-c2ccco2)cc(C(F)(F)F)n1)NC1CCCCCCC1`, the figure is -0.6; as for `COc1cccc(C(CC(=O)Nc2cccc3ccccc23)NC(=O)c2ccccc2)c1` (stereo not given), 2.17; as for `Cc1ccc(Cn2c([N+](=O)[O-])cnc2C)cc1`, -0.107.
As for `c1ccc(CSCc2nc3ccccc3[nH]2)cc1`, the figure is 0.074; as for `Cc1ccccc1C(=O)N(C)Cc1ccccc1`, -0.0368.
`Cn1nc(OC(=O)Nc2ccccc2)cc1C(F)(F)F` displayed a z-score of -0.0183.
As for `COC(=O)c1c(C)oc2ccc(N(C(=O)c3ccncc3)S(=O)(=O)c3ccccc3)cc12`, the figure is -0.409; as for `CCO/N=C(\C)c1c(O)cc(C(C)C)n(-c2ccccc2)c1=O`, -0.078; as for `CSc1ccc(C(=O)/C=C/c2ccc(N)cc2)cc1`, -0.17.
As for `O=[N+]([O-])c1cc(C(F)(F)F)ccc1Oc1cccnc1[N+](=O)[O-]`, the figure is -0.411.
As for `O=C1CC(NCc2cccs2)C(=O)N1c1ccc(Cl)cc1` (stereo not given), the figure is -0.338; as for `Cc1ccc2oc(=O)c3cnn(CC(=O)N(CCN(C)C)Cc4ccco4)c3c2c1`, -0.171; as for `O=C(NCc1ccccn1)c1cn(-c2ccccc2)nc1-c1ccc(Cl)cc1`, -0.541.
`CC(=O)c1cccc(NC(=O)COC(=O)COc2c(Cl)cc(Cl)c3ccc(C)nc23)c1` registered a z-score of 1.42.
Compound `Cc1cccc(Cn2c(C(C)(C)C)cc3cccnc32)c1` had a z-score of 0.162.
Then `N=C1c2ccccc2CN1NC(=O)c1cccc(S(=O)(=O)N2CCOCC2)c1`, with -0.0374; and `Cc1ccccc1NC(=O)COC(=O)Cc1cccc(C(F)(F)F)c1`, with -0.133.
As for `CCNc1nc(NC(C)C)nc(ON=C(C)C)n1`, the figure is 0.566; as for `O=C(NC1CCCCCC1)c1cc2n(n1)C(C(F)(F)F)CC(c1ccco1)N2` (stereo not given), -0.546.

The values are drawn from PubChem BioAssay AID488969 (Vanderbilt High Throughput Screening Facility, 2010).
